Assay results as given in paper PMC9179336, “Therapeutic Validation of GEF-H1 Using a De Novo Designed Inhibitor in Models of Retinal Disease” (Cells, 2022).

System: GEF-H1 (GEF-H1-CA, HEK293 cells)
Assay: αSMA promoter luciferase gene reporter assay, GEF-H1-CA
Settings: HEK293 co-transfected with GEF-H1-CA; dual luciferase; TAT-F1 4 µM, TAT-P5 20 µM or concentrations indicated; overnight
Excerpt: GEF-H1 regulates αSMA expression and promoter activity in a RhoA-dependent manner. Therefore, we next tested whether the inhibitors can attenuate GEF-H1-induced activation of the αSMA promoter using a luciferase reporter gene assay.

## GRKKRRQRRRPWQDYIAEVPRSDYDLRPTGQD [TAT-scr]
  GEF-H1-induced αSMA promoter activity: did not affect GEF-H1-induced αSMA promoter activity
